The full ranking holds about 33,000 sequences; the median of “E-score (-0.5 to 0.5)” is about -0.016, and the highest 2% start at about 0.32. The list shows a part of the results.
Target: T1, Stp1 (UniProt B3LFK1)
T1 sequence: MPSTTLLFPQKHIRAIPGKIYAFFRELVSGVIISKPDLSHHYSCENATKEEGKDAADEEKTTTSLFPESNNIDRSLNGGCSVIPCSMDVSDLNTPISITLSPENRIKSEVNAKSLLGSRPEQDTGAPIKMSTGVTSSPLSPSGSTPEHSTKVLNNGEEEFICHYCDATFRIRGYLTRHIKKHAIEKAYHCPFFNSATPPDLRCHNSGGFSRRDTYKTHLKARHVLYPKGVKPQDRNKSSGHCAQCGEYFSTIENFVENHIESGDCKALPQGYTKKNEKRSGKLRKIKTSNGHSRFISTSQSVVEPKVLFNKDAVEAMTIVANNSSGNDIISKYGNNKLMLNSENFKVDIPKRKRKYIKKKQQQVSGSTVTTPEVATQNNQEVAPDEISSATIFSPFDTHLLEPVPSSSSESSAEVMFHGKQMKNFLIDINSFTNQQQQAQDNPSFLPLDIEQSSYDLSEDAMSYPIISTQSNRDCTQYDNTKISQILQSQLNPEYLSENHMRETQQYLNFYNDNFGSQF
Test: PBM E-score (8-mer binding enrichment) (E-score (-0.5 to 0.5)); higher = stronger / more preferred TF binding; most listed sequences are background and not binding sites
Conditions: protein concentration: 200 nM; construct: GST-full length
Summary of the method: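 For each ungapped eight-base word taken together with its reverse complement, the Universal PBM Analysis Suite assigned an E-score. Binding data came from GST-tagged yeast transcription factors, applied at about 100-200 nM, on universal all-10-mer Agilent arrays made double-stranded by primer extension. Fluorescent anti-GST marked bound protein, and scans were normalised with masliner.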

Sequence | PBM E-score
AACAGCCG | 0.255
GACGACAC | -0.042
ACCGGCAA | -0.0651
GCAGCGCA | -0.103
CTTTATCA | -0.0472
ATACAAGG | 0.173
CAAACAAG | 0.097
GCATCTCA | 0.0289
ATGCATCA | 0.245
AAACGCCC | 0.231
CACAACTC | 0.227
CAACAAAA | 0.207
TTACATAA | 0.203
CACCCTTC | -0.295
TCCGCGGA | 0.0517
ACATTGAG | -0.13
GACTTAGA | -0.136
CTCCGGAG | -0.298
ACGGTCAG | -0.174
ACTCTATG | 0.0521
CCCGTAAC | -0.112
TGAGGCAA | 0.234
AGGAAACG | 0.0878
ACTCGATC | -0.0856
CACTTGCA | 0.0242

Sequence | PBM E-score
CAAGGCGA | 0.194
GGTGAGAA | 0.0154
ACTGTGAA | 0.0195
CTAAGTGA | 0.0875
ATGCTATC | -0.218
TCCAGAAA | 0.0873
CAGTTACG | -0.0502
AGCAGAGG | -0.123
ACGTTCTC | 0.0143
CTCCCGCC | -0.205
GAATTGTC | -0.0787
CGACCCAA | 0.12
ATCTGAGG | -0.00874
AGAGTAGG | -0.0524
ACTCTTGC | -0.151
ATACCCGA | -0.0195
GGGGAACA | -0.252
CGCTTCAC | 0.111
AGCAGTAA | -0.0832
GCATACGC | 0.0331
ATGATAGG | -0.0334
AGTCAAAT | -0.0508
AGGGTCCA | -0.182
GCGCGCCA | 0.268
ACATCTAA | 0.0295

Sequence | PBM E-score
CCTCGCAA | -0.0772
AACCCTCG | -0.13
TTATTCAA | 0.186
AGGGGCGA | -0.198
CAGAGCGA | -0.0979
GTGGTTTA | -0.0575
CAGTGGTA | -0.0313
CCCCGAAC | -0.144
ACAGGGGC | -0.199
AGTAGAAG | -0.0635
AAGACAGT | -0.179
CCCGTACC | 0.191
ACTAGGAT | 0.0396
AGCTAGGA | -0.0975
AACAGACT | -0.177
AATCTGGG | -0.194
ATAAGCGG | 0.0761
GCACCCAC | 0.118
AAGGGGAA | -0.193
CACTCAGA | 0.0169
AGCAGGAC | -0.138
GTGGATTA | -0.0115
GTGGCCGA | 0.0201
AACGATCA | -0.169
AAACTGAG | -0.0369

Sequence | PBM E-score
CAGTTAGC | -0.086
ACTCGAGC | 0.04
TAGGAGAA | -0.193
AAATCGGT | -0.183
AAACTCGT | 0.0458
CCCTTCAA | 0.0178
CCCCTGAC | -0.254
AGTATTTC | 0.136
TATGTGGA | 0.136
ATGACCGG | -0.275
GATTCTCC | -0.121
AACTCTAG | -0.278
AGATCCCT | -0.192
AGGTCGGC | -0.25
CAAGTACC | -0.184
ACGGAGTG | 0.104
AGCGCCAT | 0.148
AGCCGCTC | 0.337
ATATGCGG | 0.282
CTCCTCGC | -0.143
AAGGAGGT | -0.305
GGGACCCC | -0.32
ACCACACC | -0.0384
CTGCTAAC | -0.0238
ACCCGTGA | -0.0351

Sequence | PBM E-score
CACCTTCA | -0.13
AGCCGCTG | 0.0781
CTGGTAAC | -0.21
CCTGTCGA | -0.0843
AGTTGCCA | 0.154
ACCATCCC | -0.093
ACTCCAAA | -0.0837
CTTCCCTA | -0.23
TGCGAACA | 0.0789
ATCGCTAG | 0.0173
GGGGAAGA | -0.254
CACTGTGC | 0.00331
CACAGGGG | -0.237
AATGACGG | 0.0469
AAAATGAG | 0.12
AATCGGGT | 0.0191
ACAACACC | 0.111
CGCCGGCG | 0.312
CGCTAGAC | -0.229
CATTAAAG | 0.141
CTTAAAAC | 0.182
AATATCAG | 0.0739
ACTATAGT | 0.0121
GTTCGCAA | 0.153
CTGCGGCC | 0.214

Sequence | PBM E-score
CTGCGGGC | -0.0333
CCGATGTA | -0.231
CTTCTACC | -0.205
ATAGCCAC | 0.0777
ACATAGGC | -0.152
AGACCGTC | -0.119
CCTCCGCG | 0.0514
TATAGAAA | 0.141
AAAGTACC | 0.0191
GGCCCCCC | -0.329
GAAATAGA | 0.121
GAAGTACC | 0.0344
GTCTCGCA | -0.0571
CAGTCGTA | 0.107
CGGGCGCA | -0.16
GATGAAAC | 0.0664
AAAGTTTA | 0.189
TAATTACA | 0.041
CTGAAATA | 0.0993
AACCTTCC | -0.0388
GCGTCACC | 0.011
CAGAAACG | 0.25
ATCGAAAA | 0.0988
ATCCAAAA | 0.115
GCTTCAGA | 0.00419

Sequence | PBM E-score
CTCATGAG | 0.183
GAACTAGC | -0.182
CCATAAGA | 0.0932
AGTAACGC | 0.192
AAACATGC | -0.0742
ATTAGCTG | 0.0634
AGCGGGGC | 0.0451
ACCATACG | 0.164
AGCGAATG | -0.08
AAGGCCTG | -0.264
GGTTTACA | 0.0843
CAGTAAAG | 0.0751
CGCAGAAA | 0.131
GGTAGTGA | -0.202
GGACGACA | 0.135
AACGTTTC | 5e-05
AACACTGT | -0.0574
AATGAGAG | -0.0729
CACCAGCG | -0.178
AACTTAAA | 0.142
ATACTACA | 0.0929
ATTGGCCC | -0.366

Source: the supplement of paper PMC3334620
